Laboratory results from PubChem BioAssay AID463173 (ICCB-Longwood Screening Facility, Harvard Medical School, 2010).
Screen size: about 52,000 compounds; about 4,300 (8.3%) were called active. No stated cut-off is given here; in the data, active means survival mostly below about 52% (no sharp cut-off); inactive means mostly above about 56%. The list shows a part of the results.

What follows are molecules tested on DeltatarO mutant (assay: growth inhibition of S. aureus wild type versus tarO mutant, primary screen, teichoic acid synthesis inhibitors, RN4220, OD600 (AID 463173)). Settings: OD600, 18 h, stronger effect = lower value, screened at 18.75 µg/mL (by protocol).
In the case of `O=C(Nc1ccc(OC(F)(F)F)cc1)C1CCCN(S(=O)(=O)c2cccc3nonc23)C1` (centres undefined), the survival is reported as inactive: 96%. `O=C(O)CCCN1C(=O)C(O)=C(C(=O)/C=C/c2ccccc2)C1c1ccccc1` (centres undefined) was tested, and the survival was inactive: 96%. In the case of `Cc1cccc(OCC(=O)Nc2nonc2-c2ccc(Br)cc2)c1C`, the survival is reported as inactive: 68%. `O=C(COc1ccc(Cl)cc1)Nc1sc2c(c1C(=O)Nc1cccc(Cl)c1)CCCC2` was tested, and the survival was inactive: 170%. With `CCOc1ccc(CC(=O)Nc2ccc3c(c2)N(C)C(=O)c2ccccc2S3)cc1OCC` the survival was inactive: 95%. For `Cc1cccc(C)c1-n1ncc(C(=O)NCc2ccc3c(c2)OCO3)c1C1CCN(C(=O)OC(C)(C)C)CC1`, the survival was inactive: 126%. With `CCc1ccc(OCC(=O)N(Cc2ccc(C)cc2)Cc2ccco2)cc1` the survival was inactive: 91%. `COc1ccccc1-c1ccc(=O)n(CC(=O)NC(C)(C)C)n1` was tested, and the survival was inactive: 87%. `Cc1ccc(NC(=O)CSc2nc(-c3ccc(F)cc3)nc3c2Cc2c(CO)cnc(C)c2O3)cc1C` was tested, and the survival was inactive: 57%. In the case of `COC(=O)c1ccccc1NC(=O)CN(c1ccccc1OC)S(C)(=O)=O`, the survival is reported as inactive: 78%. With `O=C(CSc1nccn1-c1cccc(Cl)c1)Nc1cccc(C(F)(F)F)c1` the survival was inactive: 80%. For `CN(Cc1ccccc1)C(=O)CCS(=O)(=O)c1cc(Br)cc2c1N(C(=O)C1CC1)CC2`, the survival was inactive: 81%. For `COc1ccc2c(c1)CCc1sc(NC(=O)c3ccc(Cl)cc3)nc1-2`, the survival was active: 31%. In the case of `CCC1=Nc2cc(C(=O)NC(C)c3ccccc3)ccc2Sc2ccc(Cl)cc21` (centres undefined), the survival is reported as inactive: 73%. With `COCCCNC(=O)CN1C(=O)COc2ccc(S(=O)(=O)N3CCCCCC3)cc21` the survival was inactive: 84%. With `Cc1ccc(NC(=O)CCc2c(C)nc3c(-c4ccccc4)c(C)nn3c2C)c(C)c1` the survival was inactive: 66%. For `COc1ccc(-n2c(=O)c3ccccc3n(CC(=O)NCCc3ccccc3)c2=O)c(OC)c1`, the survival was inactive: 74%. With `Cc1cccc(-n2cc(-c3ccccc3)c3c(NC(C)C)ncnc32)c1` the survival was inactive: 107%. With `CC1CCN(S(=O)(=O)c2cn(CC(=O)Nc3ccc(F)c(Cl)c3)c(=O)c3ccccc23)CC1` the survival was inactive: 73%. `CCCc1nnc(N2C(=O)c3oc4ccc(F)cc4c(=O)c3C2c2ccc(C(=O)OC)cc2)s1` (centres undefined) was tested, and the survival was inactive: 97%. `COc1ccccc1OCC(=O)Nc1nnc2n1CCS2` was tested, and the survival was inactive: 87%. For `CCCNC(=O)c1cc(-c2ccccc2)on1`, the survival was inactive: 95%. For `O=C(COc1ccccc1F)Nc1ccccc1OCc1cc(=O)n2ccccc2n1`, the survival was inactive: 88%. For `CC(C)c1ccc(NC(=O)c2ccc(F)c(S(=O)(=O)N3CCCC3)c2)cc1`, the survival was inactive: 74%.
